Hit rate of the full screen: of about 44,000 compounds, about 340 (0.77%) were called active. About 5% were inconclusive and are not listed. Calls follow the shape of the dose curve; as a rule, active = well fitted inhibition curve with a large enough effect; inconclusive = small, poorly fitted or top-dose-only effect; inactive = flat fitted curve, though single readings scatter. The list shows a part of the results.
test: Acumen qHTS Assay for Inhibitors of the mTORC1 Signaling Pathway in MEF (Tsc2-/-, p53-/-) Cells: Sytravon; settings: phospho-rpS6 immunofluorescence/PI, 24 h; series mostly up to 38.3 µM; activity change, negative = inhibition: at the top concentration;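 also: plate controls were DMSO for no effect and rapamycin for full effect; nearly all actives have a fitted effect of over 50% in size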
Method in brief: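 Immunofluorescence of rpS6 phosphorylation in Tsc2-/-, p53-/- MEFs after 24 h compound exposure, normalized to propidium iodide signal. Activity is expressed as % positive cells, thresholded with 7.5 nM rapamycin.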

SMILES | activity change, negative = inhibition
CC(C)c1ccc(C(=O)Nc2cccc3cccnc23)cc1 | inactive: -12.2%
COc1ccc(CN(C(=O)Nc2ccc(C)c(F)c2)C2CCN(C(C)=O)CC2)cc1 | inactive: -0.656%
CCOc1ccc(CCNS(=O)(=O)c2c(C)nc3sc(C)cn3c2=O)cc1OCC | inactive: 2.99%
CC(=O)c1ccc(NC(=O)CCc2c(C)nn(-c3ccc4nncn4n3)c2C)cc1 | inactive: -23.1%
CSc1ccc(CCNC(=O)c2cc3n(n2)CCCN(Cc2ccc(C)cc2)C3=O)cc1 | inactive: 5.53%
CCC1CN(C(=O)N2CCC(C(=O)NCCOC)CC2)c2ccccc2O1 (stereo unspecified) | inactive: -10.5%
CCc1ccc(NC(=O)C2CCCN(S(=O)(=O)c3c(C)[nH]c(=O)[nH]c3=O)C2)cc1 (stereo unspecified) | inactive: -15.8%
COC(=O)c1ccc(Cn2nc(-c3ccc(C)c(C)c3)ccc2=O)cc1 | inactive: 2.22%
COc1ccc(Cl)cc1Nc1ncnc2c1nc1n2CCCC1 | inactive: -15.3%
O=C(CCS(=O)(=O)c1cc2c3c(c1)CCN3C(=O)CC2)NCc1ccc(F)cc1 | inactive: 9.37%
COCCc1nn2c(=O)cc(COC(=O)COc3ccccc3C)nc2s1 | inactive: 4.33%
CC(C)c1ccc(NC(=O)C2CCCN(S(=O)(=O)c3cccc4nonc34)C2)cc1 (stereo unspecified) | inactive: 0.118%
O=c1c2ccccc2n2c(-c3ccc(F)c(F)c3)nnc2n1CCc1ccccc1 | inactive: 1.58%
Cc1cc(C)c(NC(=O)CSc2nnc3[nH]c(=O)cc(C)n23)c(C)c1 | inactive: -0.868%
CCC(=O)Nc1ccc2nc(SCC(=O)N3CCc4ccccc43)sc2c1 | inactive: -9.49%
CCOC(=O)c1ccccc1NC1(c2ccc(OC)cc2)C(=O)c2ccccc2C1=O | inactive: -3.19%
CCOC(=O)c1c(S(=O)(=O)N2CCCC(C(=O)Nc3ccc(C)cc3C)C2)c(C)n(CC)c1C (stereo unspecified) | inactive: -1.04%
COC(=O)c1ccc(C2c3c(oc4cc(C)c(C)cc4c3=O)C(=O)N2c2ccccn2)cc1 (stereo unspecified) | inactive: -16.2%
CCOc1ccc(S(=O)(=O)Nc2ccc3c(c2)c(C(C)=O)c(C)n3S(=O)(=O)c2ccc(OCC)cc2)cc1 | inactive: 16%
CC(=O)Nc1ccc(C(=O)CSc2nnc3cc(C)c4ccccc4n23)cc1 | inactive: -1.26%
Cc1ccc(NC(=O)c2sc3nc(-c4ccc(F)cc4)cn3c2C)c(C)c1 | inactive: 5.49%
COc1ccc(CCC(=O)NC2CC(=O)N(c3ccc(C)c(C)c3)C2)cc1 (stereo unspecified) | inactive: 2.98%
Cc1ccc(CNC(=O)c2ccc(-c3nc(CN4CCc5ccccc54)c(C)o3)cc2)cc1 | inactive: 2.55%
CCCCNC(=O)c1ccc2c(=O)n(-c3ccccc3)c(=O)[nH]c2c1 | inactive: -1.3%

SMILES | activity change, negative = inhibition
O=C(NCc1ccc(Cl)cc1)C(=O)NCC(c1ccco1)S(=O)(=O)c1cccs1 (stereo unspecified) | inactive: -3.23%
CCOC(=O)c1ccc(NC(=O)C2CCN(S(=O)(=O)c3ccc(C)cc3)CC2)cc1 | inactive: -3.42%
COc1ccccc1CNC(=O)CS(=O)Cc1nc(-c2ccc(OC)c(OC)c2)oc1C (stereo unspecified) | inactive: 3.52%
CC(=O)c1nn(-c2ccc(OC(F)(F)F)cc2)nc1Nc1ccc(C)cc1 | inactive: 1.59%
CCC1CN(C(=O)N2CCC(C(=O)O)CC2)c2cc(C)ccc2O1 (stereo unspecified) | inactive: -0.918%
Cc1ccc(CCNC(=O)c2ccc(CSCc3ccccc3C)o2)cc1 | inactive: -11.3%
COc1ccc(Nc2cc(C)c3cc(NC(=O)Cc4c(F)cccc4Cl)ccc3n2)cc1 | inactive: -4.69%
CCN(Cc1ccccc1)C(=O)C1CCN(S(=O)(=O)c2c(C)noc2/C=C/c2ccc(C)cc2)CC1 | inactive: -9.3%
Cc1ccc2nc(-c3ccc(NC(=O)COc4ccc(Cl)c(C)c4)cc3)sc2c1 | inactive: -10.9%
COc1ccccc1CNC(=O)c1sc2nc3n(c(=O)c2c1C)CCC3 | inactive: 2.79%
CCOc1ccc(CNS(=O)(=O)c2ccc(-c3cc(C(F)(F)F)on3)s2)cc1 | inactive: -8.68%
CCn1c(SCc2ccccc2F)nc(=O)c2c(C(=O)OC)cc(C3CC3)nc21 | inactive: 2.52%
CCCNc1ccc(-c2nc(-c3ccncc3)no2)cc1[N+](=O)[O-] | inactive: 1.59%
CCOc1ccc(-c2cc(C(=O)NCc3ccc(C)cc3)c3ccccc3n2)cc1 | inactive: 6.74%
CCOc1ccc(Cl)cc1C1CC(=O)Nc2cc(OC)c(OC)c(OC)c21 (stereo unspecified) | inactive: 4.68%
Cc1cccc(N2CCN(C(=O)c3ccc(NC(=O)c4nsc5ccccc45)cc3)CC2C)c1 (stereo unspecified) | inactive: -22.1%
CCOC(=O)C1CCCN(C(=O)Cn2ncc3c([nH]c4ccc(C)cc43)c2=O)C1 (stereo unspecified) | inactive: 6.88%
CCCC(CCC)C(=O)Nc1cccc(-c2cn3cccnc3n2)c1 | inactive: -2.14%
Cc1ccc(C)c(N2CCN(C(=O)c3ccc4[nH]c(C)c(C)c4c3)CC2)c1 | inactive: -15.8%
COC(=O)c1c(NC(=O)CCCOc2ccccc2C)sc2c1CCC(C)C2 (stereo unspecified) | inactive: -4.6%
Cc1ccc(OCc2nc(-c3ccc(C(=O)NCCc4ccc(S(N)(=O)=O)cc4)cc3)oc2C)cc1 | inactive: -1.86%
COc1ccccc1CNC(=O)CN1C(=O)CCc2cc(S(=O)(=O)N3CCOCC3)ccc21 | inactive: 0%
O=C(Nc1ccc2nc(SCC(=O)N3CCCC3)sc2c1)c1ccccc1F | inactive: 0.0925%
COc1cc2[nH]c(=O)n(CCCC(=O)NCc3ccccc3)c(=O)c2cc1OC | inactive: -7.54%

SMILES | activity change, negative = inhibition
Cc1ccc(NC(=O)CN2C(=O)CCc3cc(S(=O)(=O)N4CCCCC4)ccc32)cc1N(C)C | inactive: 13.9%
CC1CN(C(=O)N2CCC(C(=O)NCc3ccco3)CC2)c2cc(Cl)ccc2O1 (stereo unspecified) | inactive: 4.77%
CCOc1ccc(NC(=O)CNS(=O)(=O)c2ccc(Br)s2)cc1 | inactive: -17.3%
O=C(CSc1nc(-c2cccs2)nc2cc(=O)[nH]n12)Nc1ccc(F)cc1 | inactive: 6.05%
CCOC(=O)c1sc2ccccc2c1S(=O)(=O)N1CCN(c2ccccc2)CC1 | inactive: -10%
COc1ccc(-c2noc(CSc3nnc(-c4ccc(Cl)cc4)n3C)n2)cc1OC | inactive: 1.7%
CCc1cnc2c(c1SCC(=O)Nc1cc(Cl)ccc1OC)c(=O)n(C)c(=O)n2C | inactive: -5.86%
CCOC(=O)c1cnc2c(C(F)(F)F)cccc2c1Nc1cccc(C(=O)OC)c1 | inactive: 1.38%
CCOc1ccccc1NC(=O)CSc1nc2c(oc3ccccc32)c(=O)n1Cc1ccco1 | inactive: -3.67%
Cc1ccc(CNC(=O)C2CCCN(S(=O)(=O)c3ccc4c(ccn4C)c3)C2)cc1 (stereo unspecified) | inactive: 5.43%
CCCCN(CCCC)CCNC(=O)c1cc(=O)[nH]c2ccc(S(=O)(=O)N3CCCCCC3)cc12 | inactive: -21.8%
CC(C)c1ccc(NC(=O)CSc2nc(=O)n(Cc3cccnc3)c3c2CCC3)cc1 | inactive: -4.98%
CCc1ccc(CNC(=O)C2CCN(C(=O)N3CC(CC)Oc4ccc(C)cc43)CC2)cc1 (stereo unspecified) | inactive: 4.18%
Cc1cc(C)c(NC(=O)CSc2ncc(S(=O)(=O)c3ccc(C(C)(C)C)cc3)c(=O)[nH]2)c(C)c1 | inactive: 0.177%
O=C(NC1CCCC1)c1ccc2c(c1)N(Cc1ccccc1Cl)C(=O)c1ccccc1S2 | inactive: 0.57%
CCc1ccccc1Nc1nn2c(=O)c3ccc(C(=O)NC4CCCCC4)cc3nc2s1 | inactive: -12.2%
CCOC(=O)c1c(N)n(-c2cccc(C)c2C)c2nc3ccccc3nc12 | inactive: 2.65%
Cc1ccn2c(=O)c(C(=O)NCc3ccccc3Cl)c(O)nc2c1 | inactive: 0.0496%
COc1cc(OC)c(NC(=O)c2c3c(nn2C)-c2ccccc2SC3)cc1Cl | inactive: 1.3%
COc1cccc(C(=O)Nc2ccc(NC(=O)c3ccc(C(C)(C)C)cc3)cc2)c1 | inactive: -13.9%
COC(=O)C(CCSC)NC(=O)c1cc2c(n(-c3ccc(OC)cc3)c1=O)CC(C)(C)CC2=O (stereo unspecified) | inactive: -13.7%
COc1ccc(S(=O)(=O)Nc2cccc(-c3ccc(N4CCCCCC4)nn3)c2)c(OC)c1 | inactive: -0.36%
COc1cccc2c1Oc1ncccc1N(c1ccc(C(=O)NCc3cccc(C)c3)s1)C2 | inactive: 2.45%
CC1(C(=O)Nc2ncc(Cc3ccc(Br)cc3)s2)Cc2ccccc2C(=O)O1 (stereo unspecified) | inactive: -7.89%

SMILES | activity change, negative = inhibition
Cc1ccc(N2CC(NC(=O)C3CCCCC3)CC2=O)cc1C (stereo unspecified) | inactive: -4.76%
CCC(C)NC(=O)c1ccc2nc(Cc3ccccc3)oc2c1 (stereo unspecified) | inactive: 2.19%
COc1ccc(-c2nc3scc(CCNC(=O)Cc4ccc(F)cc4)n3n2)cc1 | inactive: 4.25%
O=C(Nc1cc(Cl)cc(Cl)c1)c1ccc(F)c(S(=O)(=O)NCc2ccccc2Cl)c1 | inactive: 1.9%
COc1cc(OC)c(Nc2c3c(nc4nc(-c5cccs5)nn24)CCCC3)cc1Cl | inactive: 3.38%
CCN(c1ccccc1)S(=O)(=O)c1nnc(NC(=O)c2ccco2)s1 | inactive: 6.38%
Cc1ccccc1-c1nnc(SCC(=O)N2CCCCC2)o1 | inactive: 2.85%
CCOc1ccc(NS(=O)(=O)c2ccc3nc(-c4ccccc4)[nH]c3c2)cc1 | inactive: -4.05%
Cc1ccc(-n2ncc(C(=O)Nc3c(Cl)cccc3Cl)c2C2CCNCC2)cc1 | inactive: -6.29%
Cc1nn(-c2ccccc2)c2sc(C(=O)Nc3cccc(O)c3)cc12 | inactive: 11.1%
Cc1ccc(-c2nc(CS(=O)(=O)CC(=O)Nc3cc(C)ccc3C)c(C)o2)cc1 | inactive: 5.73%
Cn1c(=O)cc(OCC(=O)NCc2ccc(F)cc2Cl)c2ccccc21 | inactive: -1%
Cc1csc2nc(COc3ccccc3NC(=O)c3ccccc3Cl)cc(=O)n12 | inactive: -0.16%
Cc1ccc2nc(-c3ccc(Cl)c(NC(=O)c4ccc(Br)o4)c3)oc2c1 | inactive: 6.52%
CSc1nc2c([nH]c3ccccc32)c(=O)n1-c1ccc(C)cc1 | inactive: -15.7%
CSc1ccc(CCNC(=O)c2ccc(CS(=O)Cc3ccc(Cl)cc3)o2)cc1 (stereo unspecified) | inactive: -5.76%
O=C(COCc1cc(-c2ccc3c(c2)OCO3)on1)NCc1ccc(F)cc1 | inactive: -12.9%
Cc1ccc(Cl)cc1NC(=O)c1cc(S(=O)(=O)N2CCCCCC2)cn1C | inactive: -0.628%
Cc1cccc(-c2nc(CSCC(=O)N3CCN(c4cccc(C)c4C)CC3)c(C)o2)c1 | inactive: -6.55%
Cc1ccc(C)c(N2CCN(S(=O)(=O)c3cc(C(=O)Nc4cc(Cl)cc(Cl)c4)ccc3F)CC2)c1 | inactive: -0.905%
O=C(CSc1nc(-c2cccs2)nc2cc(=O)[nH]n12)Nc1ccccc1Cl | inactive: -4.86%
COc1cc(C2CC(=O)Nc3c2c(C)nn3-c2nncc(-c3ccccc3)n2)cc(OC)c1OC (stereo unspecified) | inactive: -10.4%
O=C(Nc1ccccc1Cl)c1cc2c(-c3ccccc3)nn(-c3ccccc3)c2s1 | inactive: -1.28%
CCN(c1ccccc1)c1nnc(NC(=O)Nc2ccc(C)cc2)s1 | inactive: -0.284%

Reference: PubChem BioAssay AID493208 (National Center for Advancing Translational Sciences (NCATS), 2011)
